Out of some 75,000 compounds screened, about 15 (0.02%) were called active. The shares of active, inactive and inconclusive entries below differ from those in the screen. The call rests on the fitted dose curve; in most records, active means well fitted inhibition curve with a large enough effect in the main read-out, with a control signal flat (not every such curve was filed as active); inconclusive means small, poorly fitted or top-dose-only effect, or a change in a side signal; inactive means flat fitted curve, though single readings scatter. Where the call is inconclusive, the potency comes from a doubtful curve fit. A note “side channel” means that the fit belongs to a control or component signal, not to the main read-out.
Each molecule was assayed against Caspase-7 (Homo sapiens) (UniProt P55210) (assay: qHTS Assay for Allosteric/Competitive Inhibitors of Caspase-7). Conditions: recombinant caspase-7, Ac-DEVD-AFC fluorescence rate; activity change, negative = inhibition: at 57.5 µM (top of the series) unless noted.
UniProt P55210, sequence (P55210 whole entry, looked up): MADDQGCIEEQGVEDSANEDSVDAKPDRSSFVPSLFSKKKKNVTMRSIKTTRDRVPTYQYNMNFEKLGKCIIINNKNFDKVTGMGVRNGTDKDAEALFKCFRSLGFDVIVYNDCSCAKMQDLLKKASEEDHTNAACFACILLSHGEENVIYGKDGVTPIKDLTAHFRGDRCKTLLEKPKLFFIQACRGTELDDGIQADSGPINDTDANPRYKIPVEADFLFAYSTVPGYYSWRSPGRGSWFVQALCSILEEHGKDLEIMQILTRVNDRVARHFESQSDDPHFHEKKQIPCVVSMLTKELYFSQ
CCOC(=O)c1cc2n(c1N)-c1ccccc1C2=O was tested, and the Potency was inconclusive: 15.8 µM [fluorescent, side channel, partial curve].
For C[N+](C)(C)[C@H](Cc1c[nH]c(=S)[nH]1)C(=O)O, the activity change, negative = inhibition was inactive: -0.951% [at 11.5 µM].
In the case of CCN(CC)S(=O)(=O)c1cccc(-c2nnc(SCCOc3ccc(Cl)cc3)o2)c1, the Potency is reported as “inactive”.
CN(C)c1ccc(/C=C/c2cc[n+]([O-])cc2)cc1 was tested, and the Potency was inconclusive: 25.1 µM [fluorescent, side channel, partial curve].
Cc1ccc(S(=O)(=O)NC(=O)NN2CCCCCC2)cc1 was tested, and the Potency was “inactive”.
In the case of COCCn1c(=O)c(-c2ccc(OC)cc2)nc2cnc(Nc3ccccc3)nc21, the Potency is reported as inconclusive: 3.98 µM [fluorescent, side channel, partial curve].
With Cc1ccccc1N1C(=O)c2cccc3c(N(C)CCO)ccc(c23)C1=O the Potency was inconclusive: 31.6 µM [inhibitor, single point].
O=C(COc1ccc(Cl)cc1)Nc1nc(-c2cccs2)cs1 was tested, and the Potency was “inactive”.
For CCOC(=O)C1=C(C)N=C2SC(CC)C(=O)N2C1c1ccc(OC(C)=O)c(OCC)c1 (configuration not stated), the Potency was “inactive”.
For CCNc1ncc2nc(C)c(=O)n(CCC#N)c2n1, the Potency was inconclusive: 15.8 µM [fluorescent, partial curve].
For CN(C)c1nc(NCc2ccccc2)nc(Oc2ccc(=O)[nH]n2)n1, the Potency was “inactive”.
In the case of COc1ccc(CC(=O)Nc2ccc(-c3nnc(-c4ccccc4)o3)cc2)cc1OC, the Potency is reported as “inactive”.
CCN(CC)c1ccc(C=N/C(C#N)=C(\N)C#N)cc1 was tested, and the Potency was inconclusive: 12.6 µM [inhibitor, partial curve].
With O=c1c2ccccc2oc2cc(O)c(C3COCC(CO)C(O)C(O)C3O)c(O)c12 (configuration not stated) the Potency was inconclusive: 25.1 µM [fluorescent, partial curve].
In the case of CCOC(=O)c1sc(Nc2nc3c(OC)cccc3s2)nc1C, the Potency is reported as “inactive”.
COc1ccc(-n2c(NC(=O)c3ccco3)c(C#N)c3nc4ccccc4nc32)cc1 was tested, and the Potency was inconclusive: 15.8 µM [fluorescent, partial curve].
CNC(=O)[C@H](C)/C=C/C(NC(=O)OCc1ccccc1)c1ccc(C(=O)OC)cc1 (some centres not stated) was tested, and the Potency was “inactive”.
In the case of CCCCn1c(SCC(=O)Nc2cccc(OC)c2)nc2ccc(N3CCOCC3)cc2c1=O, the Potency is reported as inconclusive: 31.6 µM [inhibitor, single point].
With COc1ccccc1NC(=O)c1sc2nc(-c3ccco3)ccc2c1N the Potency was “inactive”.
For COc1ccc(-c2nc3cnc(N4CCNCC4)nc3n(C)c2=O)cc1, the Potency was inconclusive: 7.94 µM [fluorescent, side channel, partial curve].
Cc1ccc(C(C)C)c(OCC(=O)Nc2ccc(N3CCN(S(C)(=O)=O)CC3)cc2)c1 was tested, and the Potency was “inactive”.
For CN(Cc1cnc2nc(N)nc(N)c2n1)c1ccc(C(=O)N[C@@H](CCC(=O)O)C(=O)O)cc1, the Potency was inconclusive: 15.8 µM [fluorescent, side channel, partial curve].
With CC1(C)CC(=O)C2=C(C1)N(CCN1CCOCC1)C1=C(C(=O)CC(C)(C)C1)C2c1cccc(Cl)c1 the Potency was inconclusive: 12.6 µM [fluorescent, side channel, partial curve].
For CCOc1ccc2nc3cc(N)ccc3c(N)c2c1, the Potency was inconclusive: 25.1 µM [fluorescent, side channel, partial curve].
In the case of Nc1ccc(O)c(-c2nc3ccccc3s2)c1, the Potency is reported as inconclusive: 12.6 µM [inhibitor, partial curve].
For N#Cc1c(-c2cccs2)cc(-c2cccnc2)nc1N, the Potency was “inactive”.
In the case of CCN(c1cccc(C(F)(F)F)c1)S(=O)(=O)c1ccc2c(c1)CCN2C(=O)C1CC1, the Potency is reported as “inactive”.
With CCCCc1ccc(-c2nc(-c3ccncc3)no2)cc1 the Potency was “inactive”.
Cc1cccn2c(=O)c3cc(C(=O)NCc4cccnc4)c(=N)n(C(C)C)c3nc12 was tested, and the Potency was inconclusive: 3.98 µM [fluorescent, side channel, partial curve].
Cc1cccc(C)c1OCC(=O)NCc1nnc(SCC(=O)NC2CCCCC2)n1C was tested, and the Potency was “inactive”.
COc1ccc(C2=CC(c3sccc3C)n3nnnc3N2)cc1 (configuration not stated) was tested, and the Potency was inconclusive: 39.8 µM [inhibitor, single point].
For COC(=O)C1=COC(C)C2CN3CCc4c([nH]c5ccccc45)C3CC12 (configuration not stated), the Potency was inconclusive: 25.1 µM [fluorescent, partial curve].
In the case of CN1CCN(c2ncc3nc(-c4ccc(Cl)cc4)c(=O)n(Cc4cccs4)c3n2)CC1, the Potency is reported as inconclusive: 15.8 µM [fluorescent, side channel, partial curve].
N=c1oc2c3c4c(cc2cc1C(=O)Nc1ccccc1)CCCN4CCC3 was tested, and the Potency was inconclusive: 2 µM [fluorescent, side channel, full curve].
Cc1ccc(S(=O)(=O)N2CCN(c3nc4ccccc4nc3-n3nc(C)cc3C)CC2)cc1 was tested, and the Potency was inconclusive: 31.6 µM [fluorescent, single point].
In the case of CC1CCCN(c2ccc(C(=O)NCc3cccs3)cn2)C1 (configuration not stated), the Potency is reported as “inactive”.
O=NC1=C(c2c(O)[nH]c3ccccc23)CCCC1 was tested, and the Potency was “inactive”.
With Cc1ccccc1Cn1c(CN2CCN(c3ccc(F)cc3)CC2)nc2c1c(=O)n(C)c(=O)n2C the Potency was inconclusive: 31.6 µM [fluorescent, single point].
O=C(c1ccco1)N1CCN(C(=O)c2cnn3c(C(F)(F)F)cc(-c4cccs4)nc23)CC1 was tested, and the Potency was inconclusive: 25.1 µM [fluorescent, partial curve].
With CCNc1ncc2nc(-c3ccccc3)c(=O)n(CCc3ccccc3)c2n1 the Potency was inconclusive: 3.16 µM [fluorescent, full curve].
CC1CCc2nc(NC(=O)Cc3cccs3)sc2C1 (configuration not stated) was tested, and the Potency was “inactive”.
With CCC(C)(C)n1nnnc1CN(Cc1cccs1)Cc1cc2cc(OC)ccc2[nH]c1=O the Potency was inconclusive: 39.8 µM [inhibitor, single point].
C=CCn1c(-c2cccs2)nc2nc3ccccc3nc21 was tested, and the Potency was inconclusive: 12.6 µM [fluorescent, partial curve].
In the case of CC(C)(Sc1ccc(CCN(CCCCC2CCCCC2)C(=O)NC2CCCCC2)cc1)C(=O)O, the Potency is reported as inconclusive: 39.8 µM [quencher, side channel, single point].
For CCOC(=O)c1oc2ccccc2c1CSc1nnnn1-c1ccccc1, the Potency was “inactive”.
With CSc1ccc2c(c1)N(CCC1CCCCN1C)c1ccccc1S2 (configuration not stated) the Potency was “inactive”.
In the case of COc1ccc2nc3sc(C(=O)NCc4cccs4)c(N)c3cc2c1, the Potency is reported as inconclusive: 25.1 µM [fluorescent, partial curve].
CCCCN1c2ccccc2N(CCCO)c2cc(C)nnc21 was tested, and the Potency was “inactive”.
In the case of CN1c2ccccc2C(C)(C)C12C=Cc1cc(O)ccc1O2 (configuration not stated), the Potency is reported as “inactive”.
For N=c1c(S(=O)(=O)c2ccccc2)cc2c(=O)n3ccccc3nc2n1CC1CCCO1 (configuration not stated), the Potency was inconclusive: 12.6 µM [fluorescent, partial curve].
In the case of O=C(Nc1ccc2nc(-c3ccco3)[nH]c2c1)c1cccs1, the Potency is reported as inconclusive: 15.8 µM [inhibitor, partial curve].
With CN(C)C(=O)c1ccc(-c2cncnc2NCc2cccnc2)cc1 the Potency was “inactive”.
In the case of CC(C)c1ccc(Cn2ccc3c4c(N)nc(NC5CC5)nc4ccc32)cc1, the Potency is reported as “inactive”.
In the case of CCN(CC)c1ccc(C2C(C(=O)OCCOC(C)C)=C(C)NC3=C2C(=O)CCC3)cc1 (configuration not stated), the Potency is reported as inconclusive: 25.1 µM [inhibitor, partial curve].
With CCOC(=O)Nc1ccc2c(c1)N(C(=O)N(CC)CC)c1ccccc1CC2 the Potency was “inactive”.
In the case of Cc1nnc(C)n1/N=C/c1cc(Br)ccc1O, the Potency is reported as inconclusive: 15.8 µM [fluorescent, side channel, partial curve].
In the case of O=c1cc(C(F)F)oc2c1ccc1ccccc12, the Potency is reported as “inactive”.
For Cc1occc1-c1nnc(SCC(=O)NCc2ccco2)n1CC(C)C, the Potency was “inactive”.
Cc1cc2cc(CCNC(=O)CC(C)C)c(=O)[nH]c2cc1C was tested, and the Potency was inconclusive: 20 µM [fluorescent, side channel, partial curve].
In the case of CCc1ccc2[nH]c(=O)c(CN(Cc3nnnn3C3CCCC3)C3CCCCC3)cc2c1, the Potency is reported as inconclusive: 31.6 µM [fluorescent, single point].
For N#Cc1cccc(-c2nc3cnc(N4CCOCC4)nc3n(C3CC3)c2=O)c1, the Potency was inconclusive: 3.16 µM [fluorescent, side channel, full curve].
In the case of Fc1ccc(-c2nnc3ccc(N4CCc5ccccc5C4)nn23)cc1, the Potency is reported as “inactive”.
For CC1(C)[C@@H](CC(=O)O)CCC[C@@H]1CC(=O)O, the activity change, negative = inhibition was inactive: 0.969% [at 11.5 µM].
For CCN(CC)c1ccc2cc(C(=O)Nc3cccnc3N3CCOCC3)c(=O)oc2c1, the Potency was inconclusive: 12.6 µM [inhibitor, partial curve].
With CSc1nc(N)nc(SCC(=O)c2ccccc2)c1C#N the Potency was inconclusive: 39.8 µM [fluorescent, side channel, single point].
With S=c1[nH]c2ccccc2s1 the Potency was “inactive”.
For COC(=O)N1CCC2(CCCN(Cc3ccc(C#N)cc3)C2)CC1, the Potency was “inactive”.
With O=C(Cn1c(NCCO)nc2ccccc21)c1cccs1 the Potency was “inactive”.
With Cc1onc(-c2ccccc2)c1C(=O)Nc1cccc2nsnc12 the Potency was inconclusive: 20 µM [fluorescent, partial curve].
For Cc1cc(=O)oc2cc(O)c(CN(C)CC(=O)O)cc12, the Potency was inconclusive: 3.16 µM [inhibitor, single point].
In the case of O=C1c2[nH]nc(-c3ccccc3O)c2C(c2cccc(Cl)c2)N1CC1CCCO1 (configuration not stated), the Potency is reported as “inactive”.
Cc1onc(-c2c(F)cccc2Cl)c1C(=O)Nc1cccc2nsnc12 was tested, and the Potency was inconclusive: 31.6 µM [fluorescent, side channel, single point].
Potency means the concentration at half of the fitted maximal effect; tags describe the fitted curve by direction and shape or compound fluorescence and quenching.
Wherever activity change, negative = inhibition is given: % of control where 0% means no effect.
